In PubChem BioAssay AID686978 (National Center for Advancing Translational Sciences (NCATS), 2013):
Hit rate of the full screen: of about 420,000 compounds, about 64,000 (15%) were called active. This list was built around the results that the source calls inconclusive (neither active nor inactive); the mix of calls is not that of the screen. Calls follow the shape of the dose curve; as a rule, active = well fitted inhibition curve with a large enough effect; inconclusive = small, poorly fitted or top-dose-only effect; inactive = flat fitted curve, though single readings scatter. No potency is given beside an inconclusive call; the fits are too rough.

assay: qHTS for Inhibitors of human tyrosyl-DNA phosphodiesterase 1 (TDP1): qHTS in cells in absence of CPT; conditions: DT40 Tdp1-/- hTDP1 cells, no CPT, ATP luminescence, 48 h; activity change, negative = growth inhibition: at 46.2 µM (top of the series) unless noted; also: nearly all actives have a fitted effect of over 55% in size
In short: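 Growth kinetics read by CellTiter-Glo luminescence after ≥48 hr at 37 °C. Cells: DT40 Tdp1-/- stably carrying human TDP1, 400 per well, compound exposure in the absence of CPT (DMSO vehicle).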
% is scaled to controls: 0 for no effect and ±100 for the full control effect; potency is read from the fitted curve at half-maximal effect; tags tell the direction and shape of the fitted curve.

Row | SMILES | Potency | activity change, negative = growth inhibition
1 | COC(=O)c1c(C)[nH]c(O)c1C=Nc1ccc(C#N)cc1 | inconclusive [inhibitor, single point] | –
2 | O=C(c1cccc2ccccc12)N1CCC(N2CCN(c3ccccc3)CC2)CC1 | inconclusive [inhibitor, single point] | –
3 | CCOC(=O)C1CCCN(S(=O)(=O)c2ccc3c4c2CC(=O)N4CC(C)S3)C1 (stereo not given) | active: 18.4 µM | –
4 | COc1ccc(N2CCc3c(C)nc(SC)nc32)cc1 | inconclusive [inhibitor, single point] | –
5 | CC(C)CCNC(=O)C1CC(c2ccc(C(F)(F)F)cc2)=NO1 (stereo not given) | inconclusive [inhibitor, partial curve] | –
6 | O=c1cc2nc(-c3ccccc3)nc(SCc3cccc(Br)c3)n2[nH]1 | active: 9.2 µM | –
7 | CCn1ncc(C2=NOC(C(=O)NCc3ccc(OC)cc3)C2)c1C (stereo not given) | inconclusive [inhibitor, single point] | –
8 | O=c1[nH]c(SCc2ccccc2)ncc1S(=O)(=O)c1ccccc1 | inactive | –
9 | CN(C)CCCNc1nc2cc(-c3ccc(C(=O)N4CCN(C)CC4)cc3)sc2c(=O)n1C | inconclusive [inhibitor, single point] | –
10 | Nc1cc(Cl)ccc1N1CCCCCC1 | – | inconclusive: -30.9% [inhibitor]
11 | COC(=O)C1=C(C(=O)OC)C2C=CC1C1C(OC(C)=O)C(OC(C)=O)C21 (stereo not given) | inactive | –
12 | Cc1ccc(C(=O)N/C(=C\c2ccc(-c3ccccc3[N+](=O)[O-])o2)C(=O)NCCCN2CCOCC2)cc1 | inconclusive [inhibitor, single point] | –
13 | COc1ccc2c(c1)nc(-c1cccc(Br)c1)c(=O)n2C(c1ccccn1)c1nc2ccccc2[nH]1 (stereo not given) | inconclusive [inhibitor, single point] | –
14 | NS(=O)(=O)c1ccc(CNS(=O)(=O)Cc2ccc(Cl)cc2)cc1 | inactive | –
15 | CCOC(=O)c1c(/N=C/c2cc(C)ccc2O)sc2c1CCC2 | inactive | –
16 | O=C1/C(=C/c2ccncc2)SC(=S)N1Nc1ccccc1 | inconclusive [inhibitor, single point] | –
17 | O=C(CNC(=O)c1ccccc1)N/N=C/c1cc(Br)ccc1O | active: 7.31 µM | –
18 | COc1ccc(N2CCN(C(CNC(=O)C(=O)NCc3ccc(C)cc3)c3cccnc3)CC2)cc1 (stereo not given) | active: 7.31 µM | –
19 | CSc1ncccc1C(=O)Nc1cc(Cl)ccc1N1CCOCC1 | inconclusive [inhibitor, single point] | –
20 | Oc1c(C=C2N=c3ccccc3=N2)sc(=S)n1C1CCCC1 | inactive | –
